# Measurements: the supplement of paper PMC3334620
# In all, about 33,000 sequences were measured (“E-score (-0.5 to 0.5)”: median about -0.035, highest 2% from about 0.34 on). The list shows a part of the results.
# Target: T1, Mot3 (UniProt P54785)
# T1 sequence: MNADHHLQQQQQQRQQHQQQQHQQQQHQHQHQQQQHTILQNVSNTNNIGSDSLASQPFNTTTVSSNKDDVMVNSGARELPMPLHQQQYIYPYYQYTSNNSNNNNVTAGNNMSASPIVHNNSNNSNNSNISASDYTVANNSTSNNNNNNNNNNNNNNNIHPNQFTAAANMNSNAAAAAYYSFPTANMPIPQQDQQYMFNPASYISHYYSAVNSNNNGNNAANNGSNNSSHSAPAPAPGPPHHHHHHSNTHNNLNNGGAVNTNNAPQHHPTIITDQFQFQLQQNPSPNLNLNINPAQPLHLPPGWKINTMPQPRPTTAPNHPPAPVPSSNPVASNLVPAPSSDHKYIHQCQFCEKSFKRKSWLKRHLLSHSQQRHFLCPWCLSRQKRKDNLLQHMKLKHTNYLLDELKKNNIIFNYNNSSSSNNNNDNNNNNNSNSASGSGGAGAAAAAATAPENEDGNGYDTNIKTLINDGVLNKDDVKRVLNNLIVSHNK
# Assay: PBM E-score (8-mer binding enrichment) (E-score (-0.5 to 0.5)); higher = stronger / more preferred TF binding; most listed sequences are background and not binding sites
# Conditions: protein concentration: 200 nM; construct: GST-full length
# Summary of the method: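 Bound GST-tagged yeast transcription factors, applied at about 100-200 nM to double-stranded universal all-10-mer Agilent arrays, were detected with fluorescent anti-GST. Scans were normalised with masliner. A modified Wilcoxon-Mann-Whitney statistic, the E-score, was assigned to each ungapped eight-base word pooled with its reverse complement by the Universal PBM Analysis Suite.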
row,Sequence,PBM E-score
1,GAATGTAC,0.028
2,AAGCTGCC,-0.154
3,AATCCTCA,-0.12
4,CAAAACTA,0.156
5,GACGCACC,-0.124
6,GGATCGAA,-0.0248
7,AAATAGCG,0.11
8,CAACCGTA,-0.0166
9,CGCTATCA,-0.0807
10,ATAATATG,0.121
11,CCCCTGTC,-0.106
12,CCGTTTTC,0.0612
13,AACTCCCA,-0.309
14,ACACCTTG,0.193
15,AGGCCTAA,-0.187
16,GATCCCTA,0.0167
17,GTCGGTGA,-0.212
18,CACGAAAA,0.166
19,ACCTTGTA,0.338
20,CGCCTGCC,0.0805
21,GCTACCGA,-0.174
22,AAGTCCGC,-0.133
23,CTCCGCTA,-0.134
24,ACAGAACG,-0.0813
25,AGGTCCGG,-0.117

row,Sequence,PBM E-score
1,CCGAGAAC,-0.0817
2,ACGCTGCA,-0.135
3,AACCTCTT,0.165
4,AACGCTAC,-0.0449
5,GCAAATCA,0.0867
6,ATATCGTC,0.0109
7,AAGCTCAT,-0.164
8,CCTCACCC,-0.147
9,GCTCTCAC,-0.23
10,AGGATCCA,-0.116
11,TGGACAAA,-0.103
12,CGTTGCAC,0.00668
13,GATATCAC,0.00517
14,CCGTTTCG,-0.138
15,CGCACCGA,-0.27
16,ACAGTTCG,0.0369
17,AATTCGAC,-0.0126
18,CCACTGAC,-0.281
19,GACTAGTA,-0.0381
20,ACTATTTC,0.0153
21,ACCCCCCG,-0.242
22,AATCAGAA,0.0332
23,AATTTGAG,-0.0957
24,ATCTCCAT,-0.039
25,GGACTGAC,-0.19

row,Sequence,PBM E-score
1,ATTTATTA,0.137
2,TTTGAAAA,0.276
3,ACAAGCTC,-0.0244
4,CGAAGGAC,-0.03
5,GGCCAGCC,-0.194
6,CACTGTCG,-0.122
7,CGAGGCGC,-0.207
8,AACACCGG,-0.0422
9,AACCGGGG,-0.236
10,AGGGGTAA,-0.0463
11,AGTGAGCA,-0.0508
12,ATCGAGAG,-0.0709
13,CGACGCGC,0.124
14,CGAACCGC,-0.0972
15,TATCATAA,0.0167
16,GACGCGCA,-0.196
17,AATGACGC,0.119
18,ACCCTACC,-0.188
19,TACGATGA,0.107
20,AGAGCGTA,-0.0554
21,CTTGTGCA,0.176
22,CCTGTAGC,0.192
23,GCCTTAAC,0.269
24,CTCTGGGC,-0.0902
25,ACGTAAAG,0.243

row,Sequence,PBM E-score
1,AAACGACA,0.221
2,CCTCTGCG,-0.188
3,AGTATTGA,0.0762
4,TGTGAAAA,0.18
5,ACATATAG,0.229
6,AAGGAACT,0.416
7,CTCCACCC,-0.349
8,GATTGCAC,0.167
9,CGAATTGA,-0.0841
10,AAGATGGT,0.00507
11,ACAGGACT,-0.129
12,GATAGATA,-0.0809
13,GATCAGGA,-0.216
14,GTCGCTCA,-0.00948
15,AAGGCGGG,-0.112
16,CTCAGCCC,-0.157
17,CATTCTCC,-0.128
18,AGCTACGA,-0.115
19,TCCATCCA,-0.215
20,TCCTTCAA,0.174
21,ACGATGTG,0.169
22,CGCGTGTA,0.375
23,ACGCGTCG,0.137
24,CGATTTTC,-0.0214
25,AGATCTGA,-0.112

row,Sequence,PBM E-score
1,TCTGTACA,0.235
2,CCTAGTCC,0.0607
3,AGACTTCC,-0.275
4,AGGAATGG,-0.0291
5,GATCATAC,-0.182
6,CGACCTAG,-0.142
7,AATACACC,0.271
8,GGCAGACA,-0.0237
9,GCCCCAAA,-0.0143
10,TCGCTTCA,-0.162
11,ATAACGTC,0.0563
12,GCTTGAAA,0.0632
13,GCGCTTCC,-0.0945
14,ACCGCAAG,-0.00025
15,CTTTGTCA,0.167
16,ATGTTCGA,0.0635
17,ATTGACTC,-0.183
18,GCTCGGTA,-0.0408
19,AGCATAAC,0.0259
20,TACGGATA,0.111
21,GTCAGGGA,-0.339
22,ACATGTGA,0.225
23,CTGTTGAC,0.131
24,CAGGGTGG,-0.258
25,ACTTTATA,0.148

row,Sequence,PBM E-score
1,ATACAAGC,0.262
2,CGACTGGC,-0.0734
3,GATGACCA,-0.0047
4,ATTCTACC,0.0703
5,CACATATC,-0.136
6,ATCTGAGA,-0.242
7,CAAAATAA,0.174
8,AGATACGC,-0.0544
9,ACGTCCTC,-0.117
10,GGGGATAC,-0.193
11,CAAGTCAC,0.0603
12,GAGCACCC,-0.331
13,ACAGTTTA,0.129
14,CAGATTTC,0.0166
15,GCGCACAC,-0.197
16,CGCAACGC,-0.0135
17,AACAAACG,0.236
18,GCTTCCTA,0.106
19,AGTCTGGA,-0.0866
20,CCTCGATA,0.0139
21,ATGAAAGC,0.103
22,CAGAGAAC,-0.0721
23,TTAGGGAA,0.0178
24,AGGCACGA,0.491
25,TCTCTACA,0.153

row,Sequence,PBM E-score
1,GCGGTCCC,-0.298
2,GGCTTTCA,-0.127
3,GTTTCACA,0.181
4,CGTTGGAG,-0.0165
5,CGGATTAC,0.151
6,CCTAGAGC,-0.102
7,CACGCCTA,0.0743
8,ACGCACAA,0.164
9,AGTCAAAG,-0.0859
10,AATGAAGG,0.167
11,GCCGCCCA,-0.226
12,GACTGCCA,-0.134
13,ACGTGCCC,0.261
14,CCTCATAC,-0.0676
15,TCAGTAAA,0.0673
16,CTCAAGAC,-0.131
17,ACCTATAG,0.175
18,AGGCCATG,0.043
19,GCAAAAAC,0.146
20,CATCTCCC,-0.294
21,CTCACCCC,-0.244
22,GTTAACTA,0.296
